According to PubChem BioAssay (NCI):
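Compound exposure: 48 hours, 5 concentrations, 96-well plates. Here, GI50 denotes the concentration required for 50% inhibition of growth. Definition used: TGI = concentration required for complete inhibition of growth.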

test system: NCI-H322M lung; assay: NCI-60 cell line screen, 48 h

Structure (SMILES)	TGI	GI50
CC(C)(C)OC(=O)N1C[C@H](CC(=O)OCc2ccccc2)C[C@H]1C(=O)OCC(Cl)(Cl)Cl	> 50 µM	
CC12Oc3ccc4ccccc4c3C1c1c(ccc3ccccc13)O2 (stereo unspecified)	> 100 µM	
O=[n+]1cnn([O-])c2ccccc21	> 100 µM	
O=S1c2ccccc2N=C(c2ccc3ccccc3c2)CC1c1ccccc1 (stereo unspecified)	> 100 µM	
OCC1C(O)C(O)[C@@H]2SCCN12 (stereo partly specified)	> 100 µM	
CCOc1cc(NC(C)=O)ccc1C(=O)N/N=C/c1ccco1	> 100 µM	
CC(Br)C(=O)c1ccc2cc(Br)c3ccccc3c2c1 (stereo unspecified)	35.5 µM	
CCCCN(CCCC)c1cc(C(=O)CCCCCN)c2ccccc2n1	6.47 µM	2.55 µM
COc1cc2c3c(n(CCCN=[N+]=[N-])c(=O)c2cc1OC)-c1ccc(N)cc1C3=O	2.08 µM	0.483 µM
Cn1c2c(c3c(=O)[nH]ncc31)CCc1ccccc1-2	> 100 µM	
NC(=O)c1ncn(C2OC(CO)C(O)C2O)n1 (stereo unspecified)	> 100 µM	60.1 µM
COc1cc(O)c2c(=O)c3ccccc3n(C)c2c1	> 100 µM	
CCC[CH2][Sn]([CH2]CCC)([O]C(=O)c1cc(OC)c(OC)c(OC)c1)[O]C(=O)c1cc(OC)c(OC)c(OC)c1	2.85 µM	1.45 µM
C#CCn1c(=O)c(C)cn(/C(=C/C(=O)OCC)C(=O)OCC)c1=O	42.2 µM	
O=C(CN1CCOCC1)c1ccc2[nH]c(=O)oc2c1	> 100 µM	
CCOC(=O)/C(=C/c1cc(OC)ccc1OC)CC(=O)O	> 100 µM	
CCCCC(SC(=S)N(CC)CC)C(=O)Nc1nc(CC(=O)OCC)cs1 (stereo unspecified)	> 100 µM	> 100 µM
COC(=O)c1c(O)ccc2c1c1c(n2Cc2ccccn2)C(=O)c2ccccc2C1	> 100 µM	
NCC(=O)Nc1ccc(-n2nc(C(F)(F)F)cc2-c2ccc3c(ccc4ccccc43)c2)cc1	2.81 µM	1.46 µM
CCOC(=O)C(Cc1ccc(OC(=O)c2ccc(OC)cc2OC)cc1)NC(=O)C(F)(F)F (stereo unspecified)	38.6 µM	
C/C(=N/NC(=S)N1CCCCCC1)c1ccccc1O	> 100 µM	
S=c1cn[nH]c2ccc(Br)cc12	> 100 µM	
COc1cccc(N=N/C(=N/NC(=O)c2cc(Cl)ccc2O)c2ccc(N(CCC#N)CCC#N)cc2C)c1	> 100 µM	
COC(=O)C1=C(C(=O)Nc2cccnc2)C2OC1(C(Cc1ccccc1)Oc1ccccc1)C1OC21 (stereo unspecified)	41.6 µM	18.3 µM
CC(C)=CCC/C(C)=C/CC/C(C)=C/[C@@H]1[C@@H](CO)[C@]1(C)CC/C=C(\C)CCC=C(C)C	> 100 µM	

Structure (SMILES)	TGI	GI50
CCCCCCCCC(=O)CCCCCCCCC(=O)O	47.9 µM	
COc1cc(-c2nn(C)nc2-c2cc3ccccc3s2)cc(OC)c1OC	> 100 µM	1.26 µM
NNC(=O)CC(=O)Nc1ccc(C(=O)O)cc1	> 100 µM	
Cc1c(NC(=O)CCCl)c(=O)oc2c(C)c3occc(=O)c3cc12	> 100 µM	
C[C@H]1O[C@@H](O[C@H]2[C@@H](O)C[C@H](O[C@H]3[C@@H](O)C[C@H](O[C@H]4CC[C@]5(C)C6C[C@@H](O)[C@]7(C)[C@@H](C8=CC(=O)OC8)CC[C@]7(O)C6CC[C@@H]5C4)O[C@@H]3C)O[C@@H]2C)C[C@H](O)[C@@H]1O (stereo partly specified)	0.393 µM	0.0757 µM
Cc1cc(O)c2c(c1O)C(=O)c1c(O)ccc(O)c1C2=O	> 100 µM	
S=C1CNC(=S)CN1	> 100 µM	
NC(N)=NS(=O)(=O)c1ccc(Nc2c3ccccc3nc3ccc(C(=O)Nc4ccc(S(N)(=O)=O)cc4)cc23)cc1	> 100 µM	
Nc1nc(N)nc(-c2cnc3ccccc3c2)n1	> 100 µM	
CCCCCCOC(=O)C(N)Cc1ccc(OC)cc1 (stereo unspecified)	> 100 µM	
O=C(CSc1nc2ccc(Cl)cc2c(=O)n1-c1ccccc1)N=Nc1c(O)[nH]c2ccc(F)cc12	12.8 µM	
O=C(O)c1ccc([N+](=O)[O-])c(P(=O)(O)O)c1	> 100 µM	
Nc1cc(OCc2ccccc2)c(OCc2ccccc2)cc1C=O	> 100 µM	
COc1cccc(C2=NN(C(C)=O)C(c3cc(OC)c(OC)c(OC)c3)C2)c1 (stereo unspecified)	> 100 µM	4.44 µM
Cc1cc(NC(=O)NC(=O)c2ccccc2[N+](=O)[O-])ccc1Oc1ncc(Cl)cn1	32.7 µM	
COc1ccc(-c2cn3c(nc4ccccc43)c(C)n2)cc1	> 100 µM	
COc1ccc2cc(-c3ccc(OC)c(OC)c3)c(=O)oc2c1	> 100 µM	
C[C@@]12CCC[C@@](C)(C(=O)O)C1CC[C@]13C=C(CO)[C@](O)(CCC12)C3 (stereo partly specified)	> 100 µM	> 100 µM
Oc1c(Cl)cc(C(c2cc(Cl)c(O)c(Cl)c2)C(c2cc(Cl)c(O)c(Cl)c2)c2cc(Cl)c(O)c(Cl)c2)cc1Cl	14.2 µM	3.52 µM
O=C1OCC2=C1C(c1cccc([N+](=O)[O-])c1)c1cc3c(cc1N2CCO)CCC3 (stereo unspecified)	> 50 µM	0.378 µM
Cc1ccccc1NC(=O)N/C(N)=N/c1nc2ccccc2s1	> 100 µM	0.279 µM
CCCCCCCCCCCCCCCCCC(=O)[O][Sn]([CH2]CCC)([CH2]CCC)[CH2]CCC	0.367 µM	0.18 µM
COC(=O)C1C2CC3C(OC(=O)C31)C2I (stereo unspecified)	> 100 µM	
CC(C)[C@@H]1NC(=O)[C@]2(C)CSC(=N2)c2csc(n2)CNC(=O)C[C@@H](/C=C/CCS)OC1=O	2.13 µM	0.0492 µM
O=C(N/N=C\c1ccc([N+](=O)[O-])cc1)Nc1ccccc1	> 100 µM	
